# Source: paper PMC4336329 (PLoS ONE, 2015)
# About 14,000 (4.5%) of roughly 310,000 compounds showed an effect of 50% or more. Effects have a minus sign here. The list shows a part of the results.
# Molecular target: human ether-à-go-go-related gene (hERG) potassium channel (human, UniProt Q12809)
# Assay: primary screen, population patch clamp on CHO cells stably expressing hERG
# 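Also: peak tail current of the secondary pulse compared with the same well before compound.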
# Chain of human ether-à-go-go-related gene (hERG) potassium channel (Q12809 whole entry, looked up): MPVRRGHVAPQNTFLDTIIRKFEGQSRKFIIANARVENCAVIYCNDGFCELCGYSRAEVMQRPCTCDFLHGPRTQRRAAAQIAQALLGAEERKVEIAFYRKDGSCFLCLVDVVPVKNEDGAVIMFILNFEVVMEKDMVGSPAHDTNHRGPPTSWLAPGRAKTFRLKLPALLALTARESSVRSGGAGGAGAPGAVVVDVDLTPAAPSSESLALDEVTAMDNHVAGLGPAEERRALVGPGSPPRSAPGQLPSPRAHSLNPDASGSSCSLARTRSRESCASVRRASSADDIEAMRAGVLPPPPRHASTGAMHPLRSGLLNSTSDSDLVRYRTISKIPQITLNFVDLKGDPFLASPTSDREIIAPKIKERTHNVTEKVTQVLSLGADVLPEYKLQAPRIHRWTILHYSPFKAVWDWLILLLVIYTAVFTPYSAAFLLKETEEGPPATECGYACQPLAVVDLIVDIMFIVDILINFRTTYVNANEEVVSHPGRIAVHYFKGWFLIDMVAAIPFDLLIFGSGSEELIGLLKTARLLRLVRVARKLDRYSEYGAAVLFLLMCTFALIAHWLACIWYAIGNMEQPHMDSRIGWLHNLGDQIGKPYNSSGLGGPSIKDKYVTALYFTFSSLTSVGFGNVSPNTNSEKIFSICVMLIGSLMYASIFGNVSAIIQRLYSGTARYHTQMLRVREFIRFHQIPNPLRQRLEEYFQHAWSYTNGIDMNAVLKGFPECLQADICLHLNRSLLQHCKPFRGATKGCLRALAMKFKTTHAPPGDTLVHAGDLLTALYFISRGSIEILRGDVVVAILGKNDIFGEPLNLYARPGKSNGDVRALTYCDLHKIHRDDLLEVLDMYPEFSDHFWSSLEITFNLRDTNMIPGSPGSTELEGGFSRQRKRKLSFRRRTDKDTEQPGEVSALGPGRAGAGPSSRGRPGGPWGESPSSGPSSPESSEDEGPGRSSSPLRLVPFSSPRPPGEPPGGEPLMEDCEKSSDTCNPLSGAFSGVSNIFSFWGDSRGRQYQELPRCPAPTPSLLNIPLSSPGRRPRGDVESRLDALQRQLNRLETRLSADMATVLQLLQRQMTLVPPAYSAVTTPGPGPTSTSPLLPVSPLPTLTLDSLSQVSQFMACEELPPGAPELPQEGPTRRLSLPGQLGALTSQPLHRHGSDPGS
row,SMILES,"hERG current change (%, negative = inhibition) at 10uM"
1,COC(=O)\C(C(C)=O)=C(/C=C/C=C/N(C)C)N(C)C,4.11%
2,Cc1nc2ccc(S(=O)(=O)NC(C(=O)NCc3ccco3)C(C)C)cc2s1 (centres unmarked),0.871%
3,Cc1ccc2nc(NCc3ccc(F)cc3)c3nncn3c2c1,2.23%
4,COc1ccccc1NC(=O)CNC(=O)c1ccc([N+](=O)[O-])cc1,-22%
5,Cc1nn(CCCC(=O)Nc2cc(Oc3ccccc3)cc([N+](=O)[O-])c2)c(C)c1[N+](=O)[O-],7.24%
6,Cc1ccc(S(=O)(=O)N[C@@H](CC(C)C)C(=O)NCc2ccco2)cc1,-11.9%
7,ON=C1/C(=N\O)CC2(C/C1=N/O)OCCO2,-7.01%
8,CC(C)c1ccc2[nH]c(O)c(N=NC(=O)c3cccc(S(=O)(=O)Nc4ccc(Cl)cc4)c3)c2c1,17.9%
9,CC(=O)C(/C=N/c1cc(-c2ccc(C)cc2)nn1-c1ccccc1)=C(\C)O,-3.1%
10,N=C1/C(=C\c2ccc(OC(=O)c3ccccc3Cl)cc2)C(=O)N=C2SC(N3CCOCC3)=NN12,6.71%
11,COc1ccc(CNC(=O)C(C)N2CCN(c3ccc(C(C)=O)cc3)CC2)cc1 (centres unmarked),-55.1%
12,Fc1cccc(/C=C2\CCCC3=C2NC(=S)NC3c2cccc(F)c2)c1 (centres unmarked),18.7%
13,CCCN(CC(=O)Nc1ccccc1C)C(=O)c1ccc(N2CCCCCC2)c([N+](=O)[O-])c1,1.97%
14,COCCOC(=O)c1c(NC(=O)COC(=O)c2ccc(C)o2)sc(C(N)=O)c1C,-10.9%
15,COC(=O)c1cc(S(=O)(=O)NCCc2cccc(C)c2)cn1C,-0.156%
16,O=C(Nc1ccc(F)cc1)Nc1ccc(N2CCCC2)c(S(=O)(=O)Nc2ccccc2Cl)c1,17%
17,O=C(Nc1nnc(CCc2ccccc2)s1)c1cccc(F)c1,18.7%
18,Cc1csc(=O)n1CC(=O)OCC(=O)Nc1ccc(C(N)=O)cc1,11.2%
19,Cc1ccc(NC(=S)Nc2ccc3nc(-c4ccccn4)c(-c4ccccn4)nc3c2)cc1C,-5.29%
20,COC(=O)c1ccccc1NC(=O)c1ccc[nH+]c1.[Cl-],6.72%
21,CCc1cccc(NC(=O)CCNS(=O)(=O)c2cccc3nonc23)c1,16.1%
22,CCCCC(=O)Nc1cc(Cl)ccc1C(=O)O,27.6%

row,SMILES,"hERG current change (%, negative = inhibition) at 10uM"
1,Cc1ccc2cc(CN(C)C(=O)C3CCCO3)c(=O)[nH]c2c1 (centres unmarked),5.86%
2,COc1ccccc1-n1c(-c2ccccc2F)nc2ccccc2c1=O,7.45%
3,O=C(CSCc1ccccc1)Nc1ccc(S(=O)(=O)N2CCOCC2)cc1,-17.7%
4,COC(=O)c1c(-c2cccc(OC)c2)csc1N,4.73%
5,CC(C)(O)C#Cc1ncc(C(F)(F)F)cc1Cl,17.7%
6,NC(=O)Cn1c(=O)n(CCC(=O)Nc2ccc(F)cc2)c(=O)c2sccc21,22.1%
7,Cc1ccc(CNC(=O)c2cnc3ccccc3n2)cc1,-5.95%
8,COc1ccc(N2CCN(C(=O)COC(=O)COc3ccc(C#N)cc3)CC2)cc1,3.33%
9,O=S(=O)(c1cnc(Cl)c(Br)c1)N1CCc2ccccc21,1.83%
10,COc1ccc(C2C3CCCCC3(O)CCN2C(=O)c2cccs2)cc1 (centres unmarked),5.52%
11,COc1ccc(-c2coc3cc(O)ccc3c2=O)cc1OC,7.58%
12,Cn1nnnc1SCC(=O)NC(=O)c1cccc([N+](=O)[O-])c1,2.51%
13,CCCC(=O)Nc1nc(-c2ccc3c(c2)CCN3S(C)(=O)=O)cs1,9.03%
14,COc1ccc(NC(=O)CCN2C(=O)c3ccc([N+](=O)[O-])cc3C2=O)c(OC)c1,-15%
15,COc1ccccc1CNC(=O)c1ccc(CS(=O)(=O)c2ccccc2)o1,1.12%
16,O=C(N/C(=C\c1ccccc1)C(=O)N1CCOCC1)c1ccccc1Cl,0.479%
17,CC(=O)c1c(C)nc2ccc(Cl)cn12,9.34%
18,CCOC(=O)c1cc(C)sc1N1C(=O)C2C3C=CC(C3)C2C1=O (centres unmarked),-3.88%
19,CCc1cc2c(COC(=O)c3cc(S(=O)(=O)N4CCOCC4)ccc3F)cc(=O)oc2cc1O,6.39%
20,O=C(NCCN1C(=O)S/C(=C\c2ccccc2F)C1=O)C1CCCN1C(=O)c1cccs1 (centres unmarked),-23.2%
21,Cc1nn(-c2ccccc2)c2c1C(c1ccc(O)c(O)c1)N1C(=N2)C(Nc2ccccc2)=Nc2ccccc21 (centres unmarked),6.99%
22,C=CCNc1nnc(SC2CC(=O)N(c3ccc(OC)cc3)C2=O)s1 (centres unmarked),-0.141%

row,SMILES,"hERG current change (%, negative = inhibition) at 10uM"
1,Cc1cc(/C=C2\C(=N)N3N=C(c4ccco4)SC3=NC2=O)c(C)n1Cc1ccccc1,-10.8%
2,Cc1cccc(/C=N/Nc2nncc3ccccc23)c1,-21.1%
3,Cc1nc(SCC(=O)N2CC(=O)Nc3ccccc32)nc(C)c1C,37.3%
4,CCc1ccc(NC(=O)CSc2nc3n[nH]c(C)c3c(=N)n2-c2cccc(OC)c2)cc1,-8.13%
5,Fc1ccccc1CSc1ccc(-c2ccco2)nn1,-45.9%
6,COc1ccccc1CNS(=O)(=O)c1ccc(-c2cnc(C3CC3)o2)cc1,-6.72%
7,N#CCc1ccc(NC(=O)c2ccc(CN3CCc4ccccc4C3)cc2)cc1,13.2%
8,Cc1cccc(OC(=O)c2cn(C)nc2C(F)(F)F)c1C,-0.0278%
9,COc1ccc(C(NC(=O)/C=C\c2ccco2)c2ccc(OC)c(OC)c2)cc1 (centres unmarked),-12%
10,CC(C)Cc1csc(NC(=O)C(C)C)c1C(=O)O,11%
11,CCCCn1c(-c2ccc(OC)cc2)nc2c(=O)n(C)c(=O)[nH]c21,7.85%
12,CC1CC2(CCCC2)N(C(=O)c2ccccc2)Cc2ccccc21 (centres unmarked),5.47%
13,COc1ccc(S(=O)(=O)N2CCOCC2)cc1Br,12.4%
14,Cc1ccc(C2CC(=O)N(c3ccc(F)cc3)C3=C2C(=O)CCC3)cc1 (centres unmarked),0.885%
15,C/C(CC(=O)Nc1ccc(N(C)C)cc1)=N\NC(=O)c1ccc(C(C)(C)C)cc1,18.2%
16,Cc1cccc(C)c1N(CC(=O)NN=C1CCCCCC1)S(C)(=O)=O,-4.3%
17,CC(=O)N1CCC2(CC1)CC(=O)c1cc(OCC(=O)N3CCCC3)ccc1O2,9.03%
18,COc1ccc2nc(NC(=O)CSc3nnc(C)s3)sc2c1,10.4%
19,Br.CCCc1nnc2n1N=C(c1ccc(C)cc1)CS2,-12.5%
20,Cc1ccc(NC(=O)c2cc(-n3cnnc3)ccc2Cl)c(C)c1,-21%
21,O=C(c1ncn[nH]1)N1CCN(c2nc(-c3ccccc3)cs2)CC1,0.173%
22,CC(C)(C)C(=O)OCc1nc(-c2ccc(C(F)(F)F)cc2)cs1,19.4%

row,SMILES,"hERG current change (%, negative = inhibition) at 10uM"
1,COc1ccc(CCN(C)C(=O)CN2C(=O)NC3(CCCCCC3)C2=O)cc1OC,11%
2,Cc1noc(/C=C/N(C)C)c1S(=O)(=O)N1CCc2ccccc21,-18.6%
3,Cc1cccc(NC(=O)CSc2nnc(NC(=O)CN3CCOCC3)s2)c1,2.9%
4,Cc1ccc(N=C2SC(C(=O)NCCc3ccccc3)CC(=O)N2C)cc1C (centres unmarked),-17.1%
5,O=C(Nc1ccc2[nH]ccc2c1)c1cccs1,15.3%
6,O=C(CCC(=O)OCC(=O)c1ccc(F)cc1)NC1CCCCC1,-5.01%
7,Cc1ccc(CCNS(=O)(=O)c2cc3c(cc2Cl)NC(=O)CO3)cc1,-0.207%
8,O=c1cc(O)c2sc3nc(-c4ccccc4)cc(C(F)(F)F)c3c2[nH]1,10.3%
9,Cc1cc(C)c(C#N)c(SCC(=O)C2CC2)n1,8.95%
10,Cc1cc2occ(CC(=O)OCC(=O)Nc3sc4c(c3C#N)CCC(C)C4)c2cc1C (centres unmarked),6.65%
11,O=C(NCc1ccccn1)c1cc2ccccn2n1,5.52%
12,O=C(CSc1nc(O)c(Cc2ccccc2)c(=O)n1-c1ccccc1)N1CCOCC1,-7.02%
13,CC1Sc2ccc(S(=O)(=O)CCC(=O)N3CCN(c4cccc(Cl)c4)CC3)cc2NC1=O (centres unmarked),-17.2%
14,Cc1nnc2n(C)c(=O)c3c4c(sc3n12)COC(C)(C)C4,-4.87%
15,Cc1ccc(N2CCN(S(=O)(=O)c3ccc(F)c(C)c3)CC2)c(C)c1,-6.88%
16,COc1ccc(NC(=O)CC(c2ccc(F)cc2)c2ccc(OC)cc2)cc1 (centres unmarked),23%
17,CC(Oc1ccccc1)C(=O)N(CCC1=CCCCC1)c1c(N)n(Cc2ccccc2)c(=O)[nH]c1=O (centres unmarked),-48.6%
18,C/C(=N\Nc1cc(C)nc(NCc2ccccc2)n1)c1ccc([N+](=O)[O-])cc1,9.33%
19,COC(=O)C1C(O)=C(C=Nc2ccccc2)C(=O)CC1(C)C (centres unmarked),9.3%
20,CCOC(=O)CSc1nc(N)c(C#N)cc1C#N,4.45%
